# Measured values: the supplement of paper PMC3334620
# In all, about 33,000 sequences were measured (“E-score (-0.5 to 0.5)”: median about -0.012, highest 2% from about 0.29 on). Some of the results follow.
# Molecular target: T1, Ybr033w (UniProt P38073)
# T1 sequence: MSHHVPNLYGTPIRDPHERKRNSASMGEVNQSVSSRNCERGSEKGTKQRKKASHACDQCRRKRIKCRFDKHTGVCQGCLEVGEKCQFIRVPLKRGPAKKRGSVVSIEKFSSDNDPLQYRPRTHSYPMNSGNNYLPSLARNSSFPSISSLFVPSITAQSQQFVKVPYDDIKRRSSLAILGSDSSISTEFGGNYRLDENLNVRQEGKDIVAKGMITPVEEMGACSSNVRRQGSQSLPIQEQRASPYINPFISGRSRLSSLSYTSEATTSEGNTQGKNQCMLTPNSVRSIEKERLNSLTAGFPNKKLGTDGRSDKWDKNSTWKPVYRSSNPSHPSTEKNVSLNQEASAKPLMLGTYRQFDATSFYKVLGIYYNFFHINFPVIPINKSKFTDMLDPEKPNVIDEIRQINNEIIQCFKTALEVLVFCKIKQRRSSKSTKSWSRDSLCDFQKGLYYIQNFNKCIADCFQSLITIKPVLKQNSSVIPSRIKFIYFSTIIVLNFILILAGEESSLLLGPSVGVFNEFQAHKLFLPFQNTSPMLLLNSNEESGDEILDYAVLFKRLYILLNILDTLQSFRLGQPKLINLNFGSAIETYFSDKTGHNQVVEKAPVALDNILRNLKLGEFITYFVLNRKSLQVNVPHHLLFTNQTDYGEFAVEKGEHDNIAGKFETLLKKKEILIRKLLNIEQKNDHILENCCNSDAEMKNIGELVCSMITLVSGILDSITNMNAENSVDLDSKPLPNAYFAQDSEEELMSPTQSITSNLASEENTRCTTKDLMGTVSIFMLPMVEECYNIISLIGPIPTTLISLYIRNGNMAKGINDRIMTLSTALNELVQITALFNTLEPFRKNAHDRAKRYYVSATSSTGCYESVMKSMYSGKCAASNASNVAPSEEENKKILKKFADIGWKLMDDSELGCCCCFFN
# Test: PBM E-score (8-mer binding enrichment) (E-score (-0.5 to 0.5)); higher = stronger / more preferred TF binding; most listed sequences are background and not binding sites
# Conditions: protein concentration: 200 nM; construct: GST-full length
# Procedure, shortened: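 Full-length yeast transcription factors or their DNA-binding domains, GST-tagged and expressed with PURExpress, were applied at about 100-200 nM to universal all-10-mer Agilent arrays. These arrays had been made double-stranded by primer extension on fresh or once-stripped slides. Detection used fluorescent anti-GST, normalisation used masliner, and E-scores for ungapped eight-base words pooled with reverse complements came from the Universal PBM Analysis Suite.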
row,Sequence,PBM E-score
1,CATGACGG,0.0123
2,AGCACCTA,-0.132
3,AACAGAAC,0.189
4,TAGAAGGA,-0.208
5,AGGCTCTG,-0.109
6,CACCTTAC,-0.00385
7,ATAGCGTG,0.0161
8,ATTGATTC,0.233
9,ACACATGA,0.00873
10,ACCGTCTG,-0.155
11,AGGATAGC,0.063
12,AAATGGTG,0.22
13,TCAACTGA,-0.055
14,CCGGGCCG,-0.177
15,TATCCAGA,0.158
16,GTCGTAAA,0.0199
17,AAAACTCC,0.029
18,AAAGTGTG,-0.001
19,CCAACACC,-0.239
20,TAGCAATA,0.16
21,ACCAAAGA,0.166
22,ATTGGGAG,-0.116
23,CACTACTC,0.134
24,AGAACAAT,0.209
25,CGTATAGC,-0.0573

row,Sequence,PBM E-score
1,TCCACACA,0.111
2,AGATCGAC,-0.154
3,GGCATTGA,-0.0989
4,AAATTCGA,0.204
5,GCCAAGGC,-0.279
6,CAGTGTCG,-0.101
7,CTAAAAAG,0.185
8,ATGCACTG,0.0166
9,AATATTTA,0.318
10,AGTTACAG,0.122
11,ACACGGTC,-0.208
12,CACGATAG,0.134
13,CCAAATGA,0.0459
14,GATCATTA,0.225
15,CGAACGCC,-0.299
16,AGCGGAAT,0.112
17,AGCTGGGC,-0.192
18,GCAGTCAA,-0.198
19,AGATACTG,0.0567
20,ACTCTCAC,0.0357
21,AATTGCGT,0.148
22,CATAATAA,0.131
23,AATATTGC,0.223
24,CCTGAATA,0.186
25,CACACAGC,-0.0511

row,Sequence,PBM E-score
1,CCTTGTCA,0.0102
2,AGCGCTCA,-0.131
3,AAATGTGA,0.073
4,AATGACGA,0.189
5,GAACGCGA,0.00319
6,CGAATTCG,-0.115
7,CGCGCACC,-0.0167
8,ATATGTAC,0.0761
9,AGAGCAGA,-0.00101
10,ACCGTATA,-0.0708
11,CAGAGGCA,-0.234
12,AAGCCGCT,-0.0763
13,ATAGAAAA,0.252
14,AGACGGAT,0.215
15,AGGCGTTA,0.0198
16,CAATCCAA,-0.0449
17,ATCGGATC,0.0725
18,CTCGCCGA,-0.146
19,AGTATAAT,0.225
20,ACGTGTAC,-0.0471
21,TACTACCA,0.106
22,CAAAGATA,0.132
23,CGTCCAGA,-0.169
24,GCATATCC,0.00857
25,CCGGACAC,-0.248

row,Sequence,PBM E-score
1,ATCTTGCA,0.294
2,GAAGCACC,-0.133
3,GACTACTC,-0.0315
4,CCGTGCAG,-0.0414
5,AGAGAACC,-0.151
6,CCTAAGAG,-0.0267
7,ACTTGGGC,-0.117
8,TGGCCCCA,-0.264
9,AGTCACGC,-0.126
10,CCGATCGA,-0.0568
11,ATACGGAA,0.271
12,CTAGATAG,-0.0269
13,ACCTGCCT,-0.118
14,GATAGAAA,0.115
15,TCCCAGGA,-0.257
16,GAATTCCA,0.262
17,AAATCTTC,0.236
18,CCCGGTCC,-0.274
19,CACGTGGG,-0.208
20,AGAAAATA,0.314
21,TTAAGAAA,0.0544
22,AAAAATAA,0.275
23,GCTCAAGC,-0.0465
24,GGCCCATA,-0.173
25,CCGTAGAA,-0.039

row,Sequence,PBM E-score
1,ACCGCGAC,-0.0275
2,GGACGCTA,-0.0845
3,AAGCTTGC,-0.106
4,AGGTAGAG,-0.0558
5,CGGCAGTA,-0.2
6,ACAGCGAC,-0.134
7,ATTCCCGG,0.0582
8,CCCATAGG,-0.205
9,CACATTCC,-0.0315
10,GTATCAAA,0.2
11,CCTTGGCA,-0.0926
12,ACGGTTGC,-0.272
13,ACTTAAAA,0.0812
14,ATGCGCGC,0.0629
15,GTTATCGA,0.0103
16,CGGCTATC,-0.0654
17,CTGGCCAA,-0.0858
18,AAGGGGCC,-0.22
19,AGTTATTG,0.223
20,CACCTCGC,-0.137
21,CAAGCGTA,0.093
22,CCCTGCAA,-0.0995
23,CTTAACAC,0.112
24,AAGCCCTA,-0.124
25,ACGGGAGT,0.0679

row,Sequence,PBM E-score
1,AGGCAGAG,-0.0794
2,ATCTTTTC,0.239
3,TGTGGAAA,0.291
4,GGTGGTCA,-0.228
5,ACTCCACC,0.0171
6,AACTATTC,0.165
7,AGAGAACA,0.112
8,ACATAGCC,0.0728
9,CCCGCTGA,-0.372
10,ATTCCCGC,0.165
11,AGGAGCCG,-0.189
12,CCCTATTC,-0.0732
13,CCCCTAAC,-0.173
14,CCCGGCGA,-0.248
15,CATCACAG,-0.03
16,CTATCTTC,0.133
17,ACGCGAGA,0.104
18,GCAAACGA,0.0591
19,AGGACTAT,-0.149
20,GAAGCGGA,-0.0122
21,GAGCAAAC,-0.0275
22,AACGCCAT,-0.224
23,CCAACGCG,-0.132
24,ATGACCAT,-0.0382
25,AACGACGT,0.119

row,Sequence,PBM E-score
1,CTGCATGA,-0.241
2,CACGAAGG,-0.0542
3,GGAACCGA,-0.076
4,CATTGACA,-0.129
5,AGTATATG,0.0561
6,AGGGCGTG,-0.231
7,CGCCCGGC,-0.279
8,CCCTCGTA,-0.14
9,AAGATTCC,0.176
10,GCTGAACC,-0.131
11,ACACCCGA,-0.0567
12,ATGAAATC,0.243
13,GGAGTACC,-0.2
14,CGTGTATC,-0.00118
15,CCAATGAA,-0.194
16,CCCCCTAC,-0.288
17,ATATAGTC,0.25
18,ACCACTGA,-0.165
19,AGCTTCAA,0.0592
20,TAGTGTCA,0.126
21,AGAATCCT,-0.0371
22,ATTCACCC,0.045
